Measured values published in PubChem BioAssay AID1345083 (National Center for Advancing Translational Sciences (NCATS), 2018).
Screen size: about 94,000 compounds; about 6,200 (6.6%) were called active. The inconclusive results got no clear call from the source; some entries with a clear call stand among them for comparison. Calls follow the shape of the dose curve; as a rule, active = well fitted inhibition curve with a large enough effect; inconclusive = small, poorly fitted or top-dose-only effect; inactive = flat fitted curve, though single readings scatter. Where the call is inconclusive, the potency comes from a doubtful curve fit.

Test: Cytotoxic Profiling in HEK 293 Cell Line of Diverse Libraries Using Quantitative High-Throughput Screening; also: nearly all actives have a fitted effect of over 60% in size
Conditions: HEK 293 viability, ATP luminescence (CellTiter-Glo), 48-72 h; series mostly up to 115 µM
How it was run: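 Pintool-delivered compounds were incubated with HEK 293 cells (250 cells/well) at 37 degree Celsius for 48 or 72 hr. ATP-dependent luminescence (CellTiter-Glo) then reported remaining viable cells.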
Potency is read from the fitted curve at half-maximal effect; tags tell the direction and shape of the fitted curve.

Row | Structure (SMILES) | Potency
1 | COc1ccc(-c2nc(C)nc3c2CN(C(=O)c2ccc(F)cc2)CC3)cc1 | inconclusive: 31.6 µM [inhibitor, partial curve, poor fit]
2 | COCC(=O)N1CCC(C(=O)N2CCC(c3nc4ncccc4[nH]3)CC2)C1 (configuration not stated) | inactive
3 | Cc1cccc(CN(C)CC2CCCN(CCc3cccc(C(F)(F)F)c3)C2)n1 (configuration not stated) | inconclusive: 20 µM [inhibitor, full curve, poor fit]
4 | O=S1(=O)NC2(CCN(Cc3c[nH]c4ccccc34)C2)COc2ccncc21 (configuration not stated) | inactive
5 | O=C(CNC(=O)c1ccc(-c2cccc(C(F)(F)F)c2)cc1)NCCc1ccc(F)cc1 | inconclusive: 39.8 µM [inhibitor, partial curve]
6 | COc1ccc(C2Cn3cnc(C(=O)N4CCC(C(=O)Nc5ccc(F)cc5C)CC4)c3CO2)cc1 (configuration not stated) | inactive
7 | CC1Oc2ccc(NS(=O)(=O)c3cccc(Cl)c3)cc2CN(Cc2ccccc2Cl)C1=O (configuration not stated) | inconclusive: 39.8 µM [inhibitor, full curve, poor fit]
8 | COCc1nc(-c2ccc(OC3CN(C(=O)NCc4ccccc4)C3)cc2)no1 | inconclusive: 25.1 µM [inhibitor, partial curve, poor fit]
9 | CN(CC1(C)CCOCC1)C(=O)c1cc(Cl)ccc1F | inactive
10 | CCc1nc(NCCc2cc(OC)cc(OC)c2)c2cnn(C)c2n1 | inconclusive: 89.1 µM [inhibitor, single point]
11 | CC(=O)N1CCN(C(=O)C2CCCCN2Cc2ccc(-c3cccs3)cc2)CC1 (configuration not stated) | inactive
12 | COc1ccc(NC(=O)Cn2c(C)ccc(NS(=O)(=O)c3ccccc3)c2=O)cc1 | inactive
13 | COc1ccc(S(=O)(=O)NCC2CCCN(Cc3ccc(-c4ccco4)cc3)C2)cc1 (configuration not stated) | inconclusive: 89.1 µM [inhibitor, partial curve, poor fit]
14 | CCOC(=O)[C@@H]1CN(C(=O)COc2ccccc2)[C@H]2c3ccccc3O[C@@H]12 | inconclusive: 50.1 µM [inhibitor, partial curve, poor fit]
15 | O=c1c2nc(-c3ccc(O)c(F)c3)ccc2ncn1Cc1ccccn1 | inactive
16 | COc1ccc(S(=O)(=O)N[C@H]2[C@H](O)[C@H](O)C[C@@H]2c2ccc(C(F)(F)F)cc2)cc1 | inconclusive: 112 µM [inhibitor, single point]
17 | Cc1ccc(-c2ccc3nnc(CNC(=O)c4ccc(F)c(F)c4)n3n2)cc1C | inconclusive: 100 µM [inhibitor, single point]
18 | Cc1ccc(C)c(CN2CCC3(CC2)[C@H](O)C[C@@H]3OCCN)c1 | inconclusive: 89.1 µM [inhibitor, partial curve, poor fit]
19 | COc1ccc(S(=O)(=O)N2CCCC(Cn3cnc4cccnc43)C2)cc1OC (configuration not stated) | inconclusive: 44.7 µM [inhibitor, partial curve]
20 | CCCc1nc(C(=O)NC2CC(c3cc(N4CCOCC4)ncn3)C2)cs1 (configuration not stated) | inconclusive: 50.1 µM [inhibitor, partial curve, poor fit]
21 | O=C(NCc1ccccc1F)c1ccc2c(c1)CN(Cc1ccncc1F)CCO2 | active: 44.7 µM
22 | COc1cccc(-c2cccc(C(=O)N3CCCC3C(=O)NCc3cccs3)c2)c1 (configuration not stated) | inconclusive: 79.4 µM [inhibitor, partial curve, poor fit]
23 | COC(=O)C1=C(C)N=C2SC=C(CC(=O)NCCc3cccs3)N2C1c1cccc(OC)c1 (configuration not stated) | inconclusive: 79.4 µM [inhibitor, partial curve]

Row | Structure (SMILES) | Potency
24 | COCCN1C(=O)[C@@H]2C[C@@H](CN2Cc2ccccc2Cl)Oc2ccccc21 | inconclusive: 44.7 µM [inhibitor, partial curve, poor fit]
25 | CCNC(=O)N1CCC(Oc2ccccc2)C1 (configuration not stated) | inactive
26 | O=C(Nc1ccc(Cl)cc1)N1CCn2c(nn(-c3ccc(F)cc3)c2=O)C1 | inconclusive: 56.2 µM [inhibitor, partial curve, poor fit]
27 | O=C(NC1CCCCCC1)c1ccc(Cn2ccn3nc4c(c3c2=O)CCCC4)cc1 | inconclusive: 50.1 µM [inhibitor, partial curve, poor fit]
28 | O=C(c1ccc2c(c1)OCO2)N1CCN(c2nnc3ccccn23)CC1 | inconclusive: 89.1 µM [inhibitor, single point]
29 | CCCn1cc(CNC(=O)c2ccc3c(c2)n(CC)c(=O)c2ccnn23)c(C)n1 | active: 79.4 µM
30 | Cc1ccc(C(=O)N2CCC[C@H](n3c(=O)n(Cc4ccccc4)c4cccnc43)C2)cn1 | inconclusive: 100 µM [inhibitor, single point]
31 | Cc1ccc(-c2c(C(=O)NCC3CCCCC3)nc3sccn23)cc1 | inconclusive: 89.1 µM [inhibitor, single point]
32 | Fc1cccc(-c2cnc(Nc3cnccn3)c3c2CCO3)c1 | active: 100 µM
33 | O=C(Cc1cccc(Cl)c1)N1CCCC(C(=O)N2CCCC2c2nc3ccncc3[nH]2)C1 (configuration not stated) | inactive
34 | COc1ccc(-c2ccccc2C(=O)NC2CC2)nn1 | inactive
35 | CC(C)NC(=O)c1cn2cc(-c3ccc(C(F)(F)F)cc3)sc2n1 | inactive
36 | COc1ccccc1CNC(=O)C1CN(C2CCCCC2)C(=O)N1 (configuration not stated) | inactive
37 | Cc1ccc([S+](=O)([O-])NC2CCN(c3ccc4nnc(C)n4n3)CC2)cc1 | inconclusive: 89.1 µM [inhibitor, single point]
38 | C[S+](=O)([O-])N1Cc2ccccc2CC2(CCCCN2Cc2ccccc2)C1 (configuration not stated) | inconclusive: 79.4 µM [inhibitor, partial curve, poor fit]
39 | COc1ccc(CNC(=O)c2cc3c(N4CCSCC4)nc(C)cn3n2)cc1 | inconclusive: 89.1 µM [inhibitor, single point]
40 | COCCn1cnc2ccc(-c3cccc(C)c3)nc2c1=O | inactive
41 | OCc1cccc(-c2ccc3ncc(Nc4ccccc4F)n3n2)c1 | inconclusive: 50.1 µM [inhibitor, partial curve, poor fit]
42 | Cc1nc(-c2c3n(c(=O)n(CC(=O)Nc4ccc5c(c4)OCO5)c2=O)CCCCC3)no1 | inactive
43 | S=C(NC1CCCCC1)N[C@H]1CO[C@H]2[C@@H]1OC[C@@H]2n1nnnc1Oc1ccc2c(c1)OCO2 | inconclusive: 39.8 µM [inhibitor, partial curve]
44 | COCCOc1ccc2c(n1)CCN(C(=O)c1sccc1C)C2 | inactive
45 | CN1c2cc(C(=O)NC3CCCCCC3)ccc2C(=O)N2CCCCCC21 (configuration not stated) | inconclusive: 39.8 µM [inhibitor, partial curve, poor fit]
46 | CC(C)NC(=O)c1nc(-c2ccc(Cl)nc2)c2ccccn12 | inconclusive: 89.1 µM [inhibitor, partial curve]

Row | Structure (SMILES) | Potency
47 | Cc1nn(-c2ccccc2)c2c1C(C)N(CC1CN(Cc3cccc(C(F)(F)F)c3)C1)C2=O (configuration not stated) | active: 28.2 µM
48 | COc1ccc(-c2noc([C@@H]3C[C@@H](O)CN3Cc3ncc[nH]3)n2)cc1 | inactive
49 | CN(Cc1cc(C(C)(C)C)n[nH]1)C(=O)c1ccccc1C1CCNC1 (configuration not stated) | inactive
50 | COc1ccc(CC(=O)N2CC(c3nnc(C(C)C)o3)C3(CCOCC3)C2)cc1Cl (configuration not stated) | inactive
51 | O=C(NCc1ccc2c(c1)OCO2)c1nc(-c2ccc(F)cc2)c2ccccn12 | inconclusive: 10 µM [inhibitor, full curve, poor fit]
52 | CC[C@H]1CN(C(=O)Nc2cccc(C(F)(F)F)c2)CC[C@H]1CC(=O)NCCSC | inconclusive: 112 µM [inhibitor, partial curve, poor fit]
53 | COCCn1c(CN2C(=O)CCc3ccccc32)nnc1C1CC(N)C1 (configuration not stated) | inactive
54 | Cc1ccc(Cn2c(C3CCN(C(=O)c4ccccn4)CC3)n[nH]c2=O)cc1 | inconclusive: 79.4 µM [inhibitor, partial curve, poor fit]
55 | O=c1c2c(nc3cc(-c4ccccc4)[nH]n13)CCN(S(=O)(=O)c1ccccc1Cl)C2 | inconclusive: 79.4 µM [inhibitor, single point]
56 | CCCn1c(C)cnc1CCNS(=O)(=O)CCC | inactive
57 | Cn1ccnc1-c1ccc(N2CCCC(CO)(CCOc3ccccc3)C2)nn1 (configuration not stated) | active: 31.6 µM
58 | COCC(=O)NC[C@H]1CCN(Cc2cccs2)C[C@H]1N(C)C | inactive
59 | c1cncc(Nc2cc3c(cn2)CN(Cc2ccc4[nH]ccc4c2)CCN3)c1 | active: 89.1 µM
60 | CCc1noc(-c2cn(C3CCCN(C(=O)c4ccc(Cl)s4)C3)nn2)n1 (configuration not stated) | inactive
61 | COc1ccc(-c2noc(-c3nc(C(C)C)no3)n2)cc1 | inconclusive: 44.7 µM [inhibitor, partial curve, poor fit]
62 | COc1cccc(-c2ccnc3nc(CCc4ccccc4)nn23)c1 | inconclusive: 70.8 µM [inhibitor, single point]
63 | C=CCNC(=O)Nc1nc2c(s1)C[C@]1(C)CC[C@@H]3[C@H](OC(=O)[C@H]3C)[C@H]1[C@@H]2C | inconclusive: 112 µM [inhibitor, partial curve, poor fit]
64 | CCCNC(=O)N(C1CCOCC1)C1CCN(C(=O)c2cccc(F)c2)CC1 | inactive
65 | COc1ccc2cc(CN3CCC(CO)CC3)c(-c3ccc(Cl)cc3)nc2c1 | inconclusive: 25.1 µM [inhibitor, full curve, poor fit]
66 | Cn1cnc2cc(Nc3ccc(Cl)cc3F)cc(C(=O)NCc3cccnc3)c21 | inconclusive: 100 µM [inhibitor, partial curve, poor fit]
67 | CN1CC(=O)N(c2ccccc2F)Cc2c(NCCc3ccc(F)cc3)ncnc21 | inconclusive: 50.1 µM [inhibitor, partial curve, poor fit]
